Experimental data from PubChem BioAssay AID1671194 (National Center for Advancing Translational Sciences (NCATS), 2021).
Values joined by “and” are separate entries in the source; they are usually repeats but may differ in a detail not shown here. Equal entries are not always repeated. In all, about 140,000 compounds went through this assay and about 240 (0.17%) were called active. The inconclusive results got no clear call from the source; some entries with a clear call stand among them for comparison. The call rests on the fitted dose curve; in most records, active means well fitted inhibition curve with a large enough effect; inconclusive means small, poorly fitted or top-dose-only effect; inactive means no such curve, though single readings can be large or run the other way. Potencies of inconclusive entries are doubtful fits and often do not repeat.

Assay: Primary qHTS assay for inhibitors of alpha-synuclein gene (SNCA) expression; further: nearly all actives have a fitted effect of over 45% in size
Settings: HEK-293 SNCA-luciferase knock-in, luminescence, 24 h; series mostly up to 57.2 µM
Potency means the concentration at half of the fitted maximal effect; tags describe the fitted curve by direction and shape.

| SMILES | Potency |
| --- | --- |
| Cc1cc(=O)n(CC(=O)NCCc2ccc(Cl)cc2)c(N2CCOCC2)n1 | inconclusive: 5.62 µM [inhibitor, full curve, poor fit] |
| Cc1nn2c(=O)cc(COC(=O)c3cccc(NC(=O)c4ccc(C(C)(C)C)cc4)c3)nc2s1 | inactive |
| CN1CCOc2c(C(=O)NCc3cnn(C)c3)cc(-c3ccccc3O)cc21 | inactive |
| Cc1ccccc1C(=O)N1CCCC(c2nn(-c3ccc(Cl)cc3)c(=O)[nH]2)C1 (stereo not given) | inconclusive: 3.55 µM [inhibitor, full curve, poor fit] |
| COc1cccc(C(=O)Nc2ccc3nc(N4CCC(C)CC4)cc(C)c3c2)c1 | inconclusive: 39.8 µM [inhibitor, single point] |
| CCOc1ccccc1C(=O)N1CCC(Cc2nc(-c3ccc(OC)cc3)no2)CC1 | inconclusive: 39.8 µM [inhibitor, single point] |
| Cc1cc(C(F)(F)F)n(CC(C)CNC(=O)c2cn(CCN)nn2)n1 (stereo not given) | inconclusive: 28.2 µM [inhibitor, single point] |
| Cc1ccc(-n2c(=O)c3ccc(C(=O)NCc4ccccc4Cl)cc3n(CC(=O)Nc3cccc(F)c3)c2=O)cc1 | inconclusive: 35.5 µM [inhibitor, partial curve, poor fit] |
| COc1ccccc1CNC(=O)c1ccc(-c2nc(CS(=O)c3ccccc3)c(C)o2)cc1 (stereo not given) | inconclusive: 39.8 µM [inhibitor, single point] |
| COc1ccc(N(Cc2cccs2)C(=O)COc2ccc(C(C)C)cc2)cc1 | inconclusive: 28.2 µM [inhibitor, single point] |
| CC(C)CN1C(=O)C(C)(C)[S+](=O)([O-])[C@@H]2CN(c3ccc(OC(F)(F)F)cc3)C[C@@H]21 | inconclusive: 2.51 µM [inhibitor, partial curve, poor fit] |
| O=C(Cn1nc2c(cc1=O)CCCC2)NC1CCCc2c1[nH]c1c(Cl)cccc21 (stereo not given) | inconclusive: 20 µM [inhibitor, partial curve, poor fit] |
| COCCCNC(=O)c1ccc2c(c1)n(Cc1ccc(OC)cc1)c(=O)c1ccnn12 | inactive |
| CN1CC(=O)N(C2CCCC2)Cc2c1ncnc2N1CCC(N2CCOCC2)CC1 | inactive |
| COc1cccc(-c2cc(CNC(=O)C(c3ccc(F)cc3)N(C)C)no2)c1 (stereo not given) | inconclusive: 8.91 µM [inhibitor, partial curve, poor fit] |
| CC(C)(C)OC(=O)N1CCC(c2c(C(=O)Nc3ccc4c(c3)OCCO4)cnn2-c2ccccc2)CC1 | inconclusive: 39.8 µM [inhibitor, single point] |
| Cc1cc(F)ccc1NC(=O)CN1C(=O)NC2(CCCCC2)C1=O | inconclusive: 3.16 µM [inhibitor, partial curve, poor fit] |
| Cc1ccsc1C(=O)N1CCC2(CCCCO2)CC1 | inactive |
| O=C(COc1ccc(F)cc1)NCC1Cn2cccc2CN1Cc1ccccc1 (stereo not given) | inactive |
| COc1ccccc1Nc1ccnc(N2CCC(NC(=O)c3ccc(Cl)nc3)CC2)n1 | inactive |

| SMILES | Potency |
| --- | --- |
| CCOc1ccc(N(CC)S(=O)(=O)N2CCCC(C(=O)NCc3ccccc3Cl)C2)cc1 (stereo not given) | inconclusive: 39.8 µM [inhibitor, single point] |
| CN(Cc1ccc(F)cc1)C(=O)c1ccc(Cl)nc1 | inconclusive: 31.6 µM [inhibitor, single point] |
| CCC(Oc1ccccc1)C(=O)Nc1ccc2oc(-c3ccc(OC)cc3)nc2c1 (stereo not given) | inconclusive: 3.55 µM [inhibitor, single point] |
| NS(=O)(=O)c1ccc(CCNC(=O)c2cc3n(n2)CC(c2ccc(Cl)cc2)OC3)cc1 (stereo not given) | inconclusive: 39.8 µM [inhibitor, single point] |
| CS(=O)(=O)N1CCC(C2CCN(C(=O)c3cn[nH]c3)C2)CC1 (stereo not given) | inconclusive: 39.8 µM [inhibitor, partial curve, poor fit] |
| COc1cc(C2N=C(N)Nc3nc4ccccc4n32)ccc1OCCC(C)C (stereo not given) | inconclusive: 1.58 µM [inhibitor, single point] |
| COc1ccc(/C=C/c2nc(C#N)c(NCCc3ccc(OC)c(OC)c3)o2)cc1OC | inactive |
| O=C1NC(=NC2CCCCC2)C2(CCN(Cc3ccsc3)C2)N1c1cc(F)cc(F)c1 (stereo not given) | inconclusive: 39.8 µM [inhibitor, single point] |
| CC1(CCCCc2ccccc2)COc2ccc(C(=O)NCCN3CCOCC3)cc2N1 (stereo not given) | inconclusive: 22.4 µM [inhibitor, partial curve, poor fit] |
| O=C(N[C@@H]1CN(C(=O)Nc2cccc(C(F)(F)F)c2)CCC[C@H]1O)c1ccc(OCc2ccccc2)cc1 | inconclusive: 39.8 µM [inhibitor, single point] |
| Cc1nn2c(c1-c1ccccc1-c1ccccc1)N(C(=O)Cc1ccc3c(c1)OCO3)CCC2 | inconclusive: 22.4 µM [inhibitor, partial curve, poor fit] |
| CCCc1nc(C)c2c(=O)[nH]c(-c3cc(S(=O)(=O)N4CCN(CC)CC4)ccc3OCC)nn12 | inactive and inconclusive: 42.9 µM [inhibitor, single point] |
| OC[C@@H]1CNC[C@H]1C1CCN(Cc2ccc(Cl)c(F)c2)CC1 | inconclusive: 31.6 µM [inhibitor, single point] |
| Cc1ccccc1OCc1nnc(SCc2cc(=O)c3ccccc3[nH]2)n1C | inconclusive: 7.08 µM [inhibitor, single point] |
| COCCN1Cc2ccc(NCc3ccccc3)nc2C(C)(C(=O)Nc2ccc(F)cc2)C1 (stereo not given) | inconclusive: 39.8 µM [inhibitor, single point] |
| COc1cccc(CN2CCc3c(cc(C(=O)Nc4cc(OC)cc(OC)c4)n3C)C2)c1 | inactive |
| COCc1cc(C)nc2sc3c(c12)NC(c1ccc(O)cc1)N(c1ccc(OC)cc1)C3=O (stereo not given) | inconclusive: 2.82 µM [inhibitor, partial curve, poor fit] |
| CC(C)OCCCNC(=O)c1ccc(-n2c(-c3ccccc3)cc3c2CCCC3)cc1 | inconclusive: 39.8 µM [inhibitor, single point] |
| CCOc1ccccc1C(=O)N1CCC(Cc2nc(-c3ccccc3)no2)CC1 | inactive |
| COC[C@@H]1CN(C(=O)Cn2cc(C)cn2)C[C@H]1c1nc(C2CC2)no1 | inconclusive: 6.31 µM [inhibitor, single point] |

| SMILES | Potency |
| --- | --- |
| Cc1noc(-c2ccc3c(c2)OCO3)c1C(=O)N1CCC(Cc2ccc(F)cc2)CC1 | inconclusive: 25.1 µM [inhibitor, single point] |
| CCc1ccc(NC(=O)CSc2nc3nccnc3c(=O)n2CCc2c[nH]c3ccccc23)cc1 | inconclusive: 39.8 µM [inhibitor, single point] |
| OCc1ccc(-c2nn(Cc3ccccc3)c3ccccc23)o1 | inconclusive: 1.92 µM [inhibitor, partial curve, poor fit] |
| CC(C)(C)NC(=O)N1CCC2(CC1)CC(Cc1nc(-c3cnccn3)no1)CCO2 (stereo not given) | inactive |
| O=C(Nc1nccs1)[C@@H]1C[C@@H](c2ccc(F)cc2)N(Cc2ccccc2)C1 | inactive |
| Cc1ccc(N2C(=O)c3[nH]nc(-c4ccc(Cl)cc4)c3C2c2ccc(F)cc2)cc1 (stereo not given) | inconclusive: 31.6 µM [inhibitor, single point] |
| COc1cc2ccccc2cc1C(=O)Nc1ccc(Cl)c(-c2nc3ccccc3o2)c1 | inconclusive: 3.98 µM [inhibitor, single point] |
| O=C(C1CC(=O)N(c2n[nH]c3cccc(F)c23)C1)N1CCN(c2cccc(Cl)c2)CC1 (stereo not given) | inactive |
| COc1ccccc1NC(=O)CN1C(=O)C2(SCC(=O)N2c2ccc(C)c(C)c2)c2ccccc21 (stereo not given) | inconclusive: 1.41 µM [inhibitor, full curve, poor fit] |
| CNC(=O)[C@H]1C[C@H](Oc2ccccc2)CN1Cc1ccc(F)c(F)c1 | inconclusive: 10 µM [inhibitor, partial curve, poor fit] |
| COc1cc(C(=O)N2CCN(CCc3ccccn3)CC2)cc(OC)c1OC | inconclusive: 39.8 µM [inhibitor, single point] |
| CCCNC(=O)N1CCCCCC1CN1CCCC1 (stereo not given) | inconclusive: 44.7 µM [inhibitor, partial curve, poor fit] |
| CCCOc1cc(C)c2c(c1C)C[C@H]([C@H](C)C(=O)NCCN1CCOCC1)CC2 | inconclusive: 5.62 µM [inhibitor, single point] |
| CN(Cc1ccccc1)C(=O)c1ccc2c(c1)NC(C)(COc1cccnc1)CO2 (stereo not given) | inconclusive: 12.6 µM [inhibitor, partial curve, poor fit] |
| COc1ccccc1-c1cncnc1Nc1ccccc1 | inconclusive: 39.8 µM [inhibitor, single point] |
| CCCCOc1ccc(CNC(=O)CCCN2C(=O)CSc3c2c(C)nn3-c2ccccc2)cc1 | inconclusive: 17.8 µM [inhibitor, single point] |
| O=C(c1ccc(-c2cncnc2)cc1)N1CCC(N[S+](=O)([O-])c2cccs2)CC1 | inconclusive: 39.8 µM [inhibitor, single point] |
| CSc1ncc(Cl)c(C(=O)N(Cc2ccc(N(C)C)cc2)Cc2ccco2)n1 | inconclusive: 35.5 µM [inhibitor, single point] |
| O=C(NCc1ccccc1)c1ccc2nnc(-c3cccc(C(F)(F)F)c3)n2c1 | inconclusive: 0.891 µM [inhibitor, single point] |
| Cc1c(C)n(C)c2ccc(C(=O)N3CCN(c4ccccc4)CC3)cc12 | inactive |
